From PubChem BioAssay AID493208 (National Center for Advancing Translational Sciences (NCATS), 2011)
The whole screen tested about 44,000 compounds, of which about 340 (0.77%) were called active. About 5% were inconclusive and are not listed. The call rests on the fitted dose curve; in most records, active means well fitted inhibition curve with a large enough effect; inconclusive means small, poorly fitted or top-dose-only effect; inactive means flat fitted curve, though single readings scatter. The list shows a part of the results.

Test: Acumen qHTS Assay for Inhibitors of the mTORC1 Signaling Pathway in MEF (Tsc2-/-, p53-/-) Cells: Sytravon; further: nearly all actives have a fitted effect of over 50% in size
Details: phospho-rpS6 immunofluorescence/PI, 24 h; series mostly up to 38.3 µM; activity change, negative = inhibition: at the top concentration
Method in brief: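 Readout is phospho-S6 Alexa 488 signal normalized to PI per well, reported as % active cells with thresholds set from rapamycin (7.5 nM) and DMSO controls. Cells: Tsc2-/-, p53-/- MEFs, 24 hrs compound at 37 C; PI cell number serves as viability.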

SMILES | activity change, negative = inhibition
COc1ccc(-c2c(C)nn3c4c(cnc23)C(=O)CC(c2ccccc2)C4)cc1 (stereo not given) | inactive: 3.66%
CC(NC(=O)c1ccc(Nc2nc3ccccc3n3nnnc23)cc1)c1ccccc1 (stereo not given) | inactive: -11.8%
Cc1nc2nc(-c3ccc(Cl)cc3Cl)nn2c(C)c1CCC(=O)Nc1ccc(F)cc1 | inactive: 0.312%
COc1cccc(N2CC(NC(=O)c3ccc4c(c3)OCO4)CC2=O)c1 (stereo not given) | inactive: -0.129%
CCCCN(C)CCCNC(=O)CN1C(=O)COc2ccc(S(=O)(=O)N3CCOCC3)cc21 | inactive: 3.16%
COc1ccccc1N1CCN(S(=O)(=O)c2c(C)sc3ncn(CC(=O)Nc4ccc(C(F)(F)F)cc4)c(=O)c23)CC1 | inactive: 0.432%
CC(=O)c1ccc(NC(=O)C2CCCN(S(=O)(=O)c3ccc4c(c3)CCCN4C(C)=O)C2)cc1 (stereo not given) | inactive: -7.32%
Cc1cc(C)c(NC(=O)CCCN2C(=O)COc3ccc(C)cc32)c(C)c1 | inactive: -3.78%
COc1ccc(CCNC(=O)CN(c2cc(C(F)(F)F)ccc2Cl)S(C)(=O)=O)cc1 | inactive: 12.2%
Cc1ccc(OCC(=O)Nc2ccccc2C(=O)OCc2cc(=O)n3ccsc3n2)cc1C | inactive: 0%
O=C(Cn1ccc2cc(S(=O)(=O)N3CCCCC3)ccc21)NCCc1ccc(Cl)cc1 | inactive: -7.44%
O=C(O)Cc1sc(Nc2ccccc2Cl)nc1-c1ccccc1 | inactive: -1.18%
CCOC(=O)c1c(NC(=O)Cc2coc3cc(C)ccc23)sc2c1CCCC2 | inactive: 2.19%
CCc1ccc(NC(=O)c2cc3nc(-c4ccc(C)cc4)cc(C(F)(F)F)n3n2)cc1 | inactive: -4.17%
COC(=O)c1sc(NC(=O)c2cc3nc(-c4ccc(Br)cc4)cc(C(F)(F)F)n3n2)c(C(=O)OC)c1C | inactive: -0.0379%
CCOC(=O)c1cc(S(=O)(=O)N2CCN(c3cc(C)ccc3C)CC2)[nH]n1 | inactive: -3.29%
COc1ccccc1Nc1nn2c(=O)c3ccc(C(=O)N4CCCCC4)cc3nc2s1 | inactive: -1.09%
Cc1cccc(C)c1N1CC(c2nc3ccccc3n2CC(=O)OC(C)C)CC1=O (stereo not given) | inactive: -4.44%
COc1ccc(NC(=O)CSc2nc3cc(OC)c(OC)cc3c3nc(-c4ccccc4)nn23)cc1Cl | inactive: -8.03%
COC(=O)c1ccc(NC(=O)C(=O)NCCc2sc(-c3cccc(F)c3)nc2C)cc1 | inactive: -0.582%
COc1cc(-c2ccno2)ccc1S(=O)(=O)N1CCN(c2ccccc2F)CC1 | inactive: 2.32%
COc1ccc(CC(=O)NCc2nc3cccnc3n2Cc2ccc(C)cc2)cc1 | inactive: -6.95%
CCCN(CCC)C(=O)CSc1nc2ccccc2c(=O)n1Cc1ccco1 | inactive: 2.08%
CC1CCN(S(=O)(=O)c2cc3c4c(c2)CC(=O)N4CCC3)CC1 | inactive: -7.68%

SMILES | activity change, negative = inhibition
Fc1ccc(-c2cc(-c3ccccc3)c3c(n2)-c2cc(F)ccc2OC3)cc1 | inactive: 2.36%
Cc1ccc(-c2c(C)n3c4c(=O)n(C)c(=O)n(C)c4nc3n2-c2cccc(O)c2)cc1 | inactive: -1.31%
COc1ccc(S(=O)(=O)NCC(c2ccco2)N2CCOCC2)cc1 (stereo not given) | inactive: 0.41%
Cc1cc(C)cc(NC(=O)CSc2oc(-c3cccs3)nc2S(=O)(=O)c2ccccc2)c1 | inactive: 0%
Cn1c(=O)c2c(nc(NCc3ccccc3)n2Cc2ccccc2Cl)n(C)c1=O | inactive: 7.46%
O=C(C1CC1)N1CCN(c2nc3ccc(F)cc3s2)CC1 | inactive: 0.358%
CN(C)S(=O)(=O)c1ccc2c(c1)nnn2CCNC(=O)Nc1ccc(Br)cc1 | inactive: 0%
CCCCOc1ccc(CNC(=O)c2cnc3sc(N4CCOCC4)nn3c2=O)cc1 | inactive: 7.37%
COc1cccc(OCc2nc3ccccc3n2CCOc2ccccc2C)c1 | inactive: -11.4%
O=C(CCn1ccc2cc(S(=O)(=O)N3CCCC3)ccc21)NCc1cccc(Br)c1 | inactive: -10%
Cc1ccc(C)c(Nc2nn3c(=O)c4ccc(C(=O)NC5CCCCC5)cc4nc3s2)c1 | inactive: -2.32%
COc1ccc(CCNC(=O)CCCCn2c(=O)c3ccccc3n(Cc3ccc(F)cc3Cl)c2=O)cc1OC | inactive: -6.91%
Cc1ccc(C(=O)NCC(c2cccnc2)N2CCc3ccccc32)cc1C (stereo not given) | inactive: 5.68%
Cc1ccc(-c2nc3ncccc3o2)cc1NC(=O)c1cccc(OCC(C)C)c1 | inactive: -7.22%
CCC1CN(C(=O)Nc2cc(C)cc(C)c2)c2ccccc2O1 (stereo not given) | inactive: -17.7%
Cc1cc(NC(=O)c2cc(-c3ccc(Cl)cc3)on2)nn1Cc1ccc(Cl)cc1 | inactive: -10.3%
CCc1ccc(NC(=O)Cn2c(=O)n(CCC(=O)NCc3ccc4c(c3)OCO4)c(=O)c3ccccc32)cc1 | inactive: 4.02%
Cc1c(C)n(Cc2ccccc2)c2ccc(C(=O)NCc3ccco3)cc12 | inactive: -12.5%
Cc1c(-c2nsc(NC(=O)c3cccs3)n2)nnn1-c1ccc(Br)cc1 | inactive: -12%
Cc1cccc(CN2CCc3nc(N4CCN(c5ccccn5)CC4)ncc3C2)c1 | inactive: 0%
COc1cccc(Cn2c(=O)n(-c3ccccc3C)c(=O)c3c2c2cc(C)ccc2n3C)c1 | inactive: 1.48%
COc1cccc(NC(=O)C2CCN(C(=O)N3CC(C)Oc4ccccc43)CC2)c1 (stereo not given) | inactive: -10.2%
COc1ccc(Cl)cc1C(=O)Nc1ccc(-c2nnc3n2CCCCC3)cc1 | inactive: -9.11%
O=C(NCc1ccccc1Cl)c1ccc2c(O)c(S(=O)(=O)c3ccccc3)c(=O)[nH]c2c1 | inactive: 1.39%

SMILES | activity change, negative = inhibition
Cc1ccc(CNC(=O)CN2C(=O)C3CCCCN3c3ccc(C(=O)N4CCCC4)cc32)cc1 (stereo not given) | inactive: -9.14%
CC(=O)c1ccc(NC(=O)CCc2c(C)nc3cc(-c4ccc(Cl)cc4)nn3c2C)cc1 | inactive: -10.9%
Cc1ccc(C)c(NC(=O)CN(CCc2ccccc2)S(=O)(=O)c2ccccc2)c1 | inactive: 7.31%
Cc1cccc(Cc2c(C)nc3nc(SCc4ccccc4C)nn3c2C)c1 | inactive: 2.4%
CC(C)CCNC(=O)[C@@H](c1ccccc1)N1Cc2ccccc2C1=O | inactive: 1.19%
CCOc1ccc(NC(=O)Cn2nnc(C(=O)Nc3ccc(OCC)cc3)c2N)cc1 | inactive: -2.03%
CCc1nn(CC(=O)NC(C)c2ccccc2)c(=O)c2cc3sccc3n12 (stereo not given) | inactive: 1.33%
CCOC(=O)C1=C(CS(=O)(=O)c2ccc(F)cc2)NC(=O)NC1c1ccc(OCC)c(OC)c1 (stereo not given) | inactive: -16.6%
Cc1cc(C)cc(OCC(=O)NCC2(N(C)C)CCCCC2)c1 | inactive: 0%
Cc1ccc(C)c(N2CCN(c3cc(C)nc4c(-c5ccc(Cl)cc5)c(C)nn34)CC2)c1 | inactive: -6.55%
CCCc1cc(=O)n2[nH]c(NCc3ccccc3OC)nc2n1 | inactive: -1.6%
Cc1ccc(S(=O)(=O)N2CCC(c3ccncc3)CC2)c(C)c1 | inactive: -6.69%
O=C(COc1ccccc1-c1nc(-c2ccccc2)no1)Nc1ccccc1[N+](=O)[O-] | inactive: -13.1%
CC(=O)Nc1ccc(C2Nc3c(C)cc(C)cc3-c3cc(C)nn32)cc1 (stereo not given) | inactive: -1.77%
COc1cc(OC)c(NS(=O)(=O)c2ccc3c(c2)NC(=O)CCS3)cc1Cl | inactive: 5.84%
Cc1ccc(S(=O)(=O)NCCSc2nnnn2-c2ccc(Cl)c(C(=O)O)c2)cc1 | inactive: -13.2%
CCOC(=O)c1c(C)oc2nc(C)nc(NCc3ccccc3OCC)c12 | inactive: -3.13%
Cc1cc(C)cc(Nc2sc(C(=O)c3ccccc3)c(N)c2S(=O)(=O)c2ccccc2)c1 | inactive: 0.87%
CCOC(=O)c1ccc(NC(=O)C(Cc2ccccc2)NS(=O)(=O)c2ccc(Br)s2)cc1 (stereo not given) | inactive: -4.27%
CCCc1nc2ccccc2n2c(-c3cccc(C)c3)c3c(=O)n(C)c(=O)n(C)c3c12 | inactive: -0.23%
O=C(NCc1ccccc1Cl)C1CCCN(c2ncnc3onc(-c4ccc(F)cc4)c23)C1 (stereo not given) | inactive: 3.91%
COc1cccc(-n2c(SCC(=O)c3ccc(Cl)cc3)nc3c([nH]c4ccccc43)c2=O)c1 | inactive: -5.49%
CSc1ccc(CNC(=O)c2ccc(NC(=O)c3nsc4ccccc34)cc2)cc1 | inactive: -10.2%
O=C(NCc1ccccc1Cl)NCc1noc2ccccc12 | inactive: -6.02%

SMILES | activity change, negative = inhibition
COC(=O)Cn1c(=O)c2c(nc3n2CCN3c2ccc(F)cc2)n(C)c1=O | inactive: 6.59%
Cc1ccccc1NC(=O)Cn1c(=O)n(CC2CCC(C(=O)NCCc3ccccc3)CC2)c(=O)c2ccccc21 (stereo not given) | inactive: 7.88%
Cc1ccc(N2C(=O)[C@@H]3CSC(c4ccc(F)cc4)N3C2=O)cc1 (stereo not given in full) | inactive: -11.8%
CCOc1ccccc1C(=O)Nc1nc2c(s1)CC(C)CC2 (stereo not given) | inactive: -12.2%
Cc1ccc(CNS(=O)(=O)c2ccc(-c3cc(C(F)(F)F)on3)s2)cc1 | inactive: 7.36%
Nc1c(C(=O)Nc2ccccc2)nnn1Cc1ccc(F)cc1Cl | inactive: -0.386%
Cc1ccc(C(=O)Nc2cc3c(cc2N2CCCC2)n(C)c(=O)c(=O)n3C)cc1 | inactive: -4.12%
COc1cc(NC(=O)COCc2cc(-c3ccc(F)cc3)on2)cc(OC)c1OC | inactive: -5.81%
O=C(Nc1ccc(Cl)c(-c2nc3cc(Cl)ccc3o2)c1)c1cc([N+](=O)[O-])ccc1N1CCOCC1 | inactive: 1.18%
Cc1nn(C(C)(C)C)c(OC(=O)C(C)(C)C)c1Sc1ccccc1 | inactive: -1.88%
O=C(O)CCn1cnc2onc(-c3cc(F)cc(F)c3)c2c1=O | inactive: 1.95%
CCCOc1ccc(Oc2nc(NCC(C)C)nc(N3CCOCC3)n2)nn1 | inactive: -4.96%
CC(=O)Nc1ccc(NC(=O)Cn2nc(C(=O)Nc3ccc(C)cc3)ccc2=O)cc1 | inactive: -0.598%
CCOc1ccc(-c2cc3c(=O)n(CC(=O)NCc4ccc(Cl)cc4)ccn3n2)cc1 | inactive: 4.2%
COc1ccccc1N1CCN(c2nc(-c3ccc(C)cc3)nc3ccccc23)CC1 | inactive: 5.14%
COc1cccc(NC(=O)C2CCCN(S(=O)(=O)c3ccc4[nH]c(=O)ccc4c3)C2)c1 (stereo not given) | inactive: -19%
O=C(Nc1ccc(OCc2cc(=O)n3c4c(sc3n2)CCCC4)cc1)c1ccccc1 | inactive: -16.4%
CC1CCc2nc3ncn(Cc4ccccc4F)c(=O)c3cc2C1 (stereo not given) | inactive: 1.98%
CCOc1ccc(NC(=O)CN(c2ccc(Cl)cc2C)S(=O)(=O)c2ccccc2)cc1 | inactive: -2.17%
COc1ccc(N2CC(NC(=O)c3ccc4c(c3)OCO4)CC2=O)cc1 (stereo not given) | inactive: -10.6%
COc1ccc(NC(=O)CN(c2ccc(C)cc2)S(=O)(=O)c2cccc3nonc23)cc1OC | inactive: -0.403%
CCOc1ccc(OCC)c(NS(=O)(=O)c2c(C(=O)N3CCC(C)CC3)c(C)n(C)c2C)c1 | inactive: 0.605%
Cc1ccc(-n2c(SCC(=O)O)nc3sc4c(c3c2=O)CCCC4)cc1 | inactive: -1.46%
